According to patent US20210238308A1 (Chugai, published 2021):

T1: human TRIM21 PRYSPRY domain with N-terminal 6xHis tag (human)
T1 construct: Expressed from pET28a in E. coli; also called hTRIM21
T1 chain: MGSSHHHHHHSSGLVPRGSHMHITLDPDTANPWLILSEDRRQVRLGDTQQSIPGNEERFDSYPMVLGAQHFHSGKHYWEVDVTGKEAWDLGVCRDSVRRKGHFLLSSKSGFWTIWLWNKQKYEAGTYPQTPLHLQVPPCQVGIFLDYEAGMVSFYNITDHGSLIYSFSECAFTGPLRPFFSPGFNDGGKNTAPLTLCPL

B1: 3D8VH-G1m/hT4VL-KT0.Avi I253Y (antibody, human IgG1, kappa)
heavy: EVQLVESGGGLVQPGGSLRLSCAASGYTFTSYVMHWVRQAPGKGLEWVSAINPYNDGNYYADSVKGRFTISRDNSRKTLYLQMNSLRAEDTAVYYCARGAYKRGYAMDYWGQGTTVTVSSASTKGPSVFPLAPSSKSTSGGTAALGCLVKDYFPEPVTVSWNSGALTSGVHTFPAVLQSSGLYSLSSVVTVPSSSLGTQTYICNVNHKPSNTKVDKKV[human IgG1 Fc with I253Y (EU numbers) omitted here]
light: [about 200 residues omitted here]GGGGSGLNDIFEAQKIEWHE
B2: 3D8VH-G1m/hT4VL-KT0.Avi N315Q.L432P (antibody, human IgG1, kappa)
heavy: EVQLVESGGGLVQPGGSLRLSCAASGYTFTSYVMHWVRQAPGKGLEWVSAINPYNDGNYYADSVKGRFTISRDNSRKTLYLQMNSLRAEDTAVYYCARGAYKRGYAMDYWGQGTTVTVSSASTKGPSVFPLAPSSKSTSGGTAALGCLVKDYFPEPVTVSWNSGALTSGVHTFPAVLQSSGLYSLSSVVTVPSSSLGTQTYICNVNHKPSNTKVDKKV[human IgG1 Fc with N315Q L432P (EU numbers) omitted here]
light: [about 200 residues omitted here]GGGGSGLNDIFEAQKIEWHE
B3: 3D8VH-G1m/hT4VL-KT0.Avi N315M.Q438E (antibody, human IgG1, kappa)
heavy: EVQLVESGGGLVQPGGSLRLSCAASGYTFTSYVMHWVRQAPGKGLEWVSAINPYNDGNYYADSVKGRFTISRDNSRKTLYLQMNSLRAEDTAVYYCARGAYKRGYAMDYWGQGTTVTVSSASTKGPSVFPLAPSSKSTSGGTAALGCLVKDYFPEPVTVSWNSGALTSGVHTFPAVLQSSGLYSLSSVVTVPSSSLGTQTYICNVNHKPSNTKVDKKV[human IgG1 Fc with N315M Q438E (EU numbers) omitted here]
light: [about 200 residues omitted here]GGGGSGLNDIFEAQKIEWHE
B4: 3D8VH-G1m/hT4VL-KT0.Avi I253Y.N315M (antibody, human IgG1, kappa)
heavy: EVQLVESGGGLVQPGGSLRLSCAASGYTFTSYVMHWVRQAPGKGLEWVSAINPYNDGNYYADSVKGRFTISRDNSRKTLYLQMNSLRAEDTAVYYCARGAYKRGYAMDYWGQGTTVTVSSASTKGPSVFPLAPSSKSTSGGTAALGCLVKDYFPEPVTVSWNSGALTSGVHTFPAVLQSSGLYSLSSVVTVPSSSLGTQTYICNVNHKPSNTKVDKKV[human IgG1 Fc with I253Y N315M (EU numbers) omitted here]
light: [about 200 residues omitted here]GGGGSGLNDIFEAQKIEWHE
B5: 3D8VH-G1m/hT4VL-KT0.Avi N315Q.T437D (antibody, human IgG1, kappa)
heavy: EVQLVESGGGLVQPGGSLRLSCAASGYTFTSYVMHWVRQAPGKGLEWVSAINPYNDGNYYADSVKGRFTISRDNSRKTLYLQMNSLRAEDTAVYYCARGAYKRGYAMDYWGQGTTVTVSSASTKGPSVFPLAPSSKSTSGGTAALGCLVKDYFPEPVTVSWNSGALTSGVHTFPAVLQSSGLYSLSSVVTVPSSSLGTQTYICNVNHKPSNTKVDKKV[human IgG1 Fc with N315Q T437D (EU numbers) omitted here]
light: [about 200 residues omitted here]GGGGSGLNDIFEAQKIEWHE
B6: 3D8VH-G1m/hT4VL-KT0.Avi N315Q.M428F (antibody, human IgG1, kappa)
heavy: EVQLVESGGGLVQPGGSLRLSCAASGYTFTSYVMHWVRQAPGKGLEWVSAINPYNDGNYYADSVKGRFTISRDNSRKTLYLQMNSLRAEDTAVYYCARGAYKRGYAMDYWGQGTTVTVSSASTKGPSVFPLAPSSKSTSGGTAALGCLVKDYFPEPVTVSWNSGALTSGVHTFPAVLQSSGLYSLSSVVTVPSSSLGTQTYICNVNHKPSNTKVDKKV[human IgG1 Fc with N315Q M428F (EU numbers) omitted here]
light: [about 200 residues omitted here]GGGGSGLNDIFEAQKIEWHE
B7: 3D8VH-G1m/hT4VL-KT0.Avi N315M.Y436T (antibody, human IgG1, kappa)
heavy: EVQLVESGGGLVQPGGSLRLSCAASGYTFTSYVMHWVRQAPGKGLEWVSAINPYNDGNYYADSVKGRFTISRDNSRKTLYLQMNSLRAEDTAVYYCARGAYKRGYAMDYWGQGTTVTVSSASTKGPSVFPLAPSSKSTSGGTAALGCLVKDYFPEPVTVSWNSGALTSGVHTFPAVLQSSGLYSLSSVVTVPSSSLGTQTYICNVNHKPSNTKVDKKV[human IgG1 Fc with N315M Y436T (EU numbers) omitted here]
light: [about 200 residues omitted here]GGGGSGLNDIFEAQKIEWHE
B8: 3D8VH-G1m/hT4VL-KT0.Avi L309D (antibody, human IgG1, kappa)
heavy: EVQLVESGGGLVQPGGSLRLSCAASGYTFTSYVMHWVRQAPGKGLEWVSAINPYNDGNYYADSVKGRFTISRDNSRKTLYLQMNSLRAEDTAVYYCARGAYKRGYAMDYWGQGTTVTVSSASTKGPSVFPLAPSSKSTSGGTAALGCLVKDYFPEPVTVSWNSGALTSGVHTFPAVLQSSGLYSLSSVVTVPSSSLGTQTYICNVNHKPSNTKVDKKV[human IgG1 Fc with L309D (EU numbers) omitted here]
light: [about 200 residues omitted here]GGGGSGLNDIFEAQKIEWHE
B9: 3D8VH-G1m/hT4VL-KT0.Avi I253M.Y436T (antibody, human IgG1, kappa)
heavy: EVQLVESGGGLVQPGGSLRLSCAASGYTFTSYVMHWVRQAPGKGLEWVSAINPYNDGNYYADSVKGRFTISRDNSRKTLYLQMNSLRAEDTAVYYCARGAYKRGYAMDYWGQGTTVTVSSASTKGPSVFPLAPSSKSTSGGTAALGCLVKDYFPEPVTVSWNSGALTSGVHTFPAVLQSSGLYSLSSVVTVPSSSLGTQTYICNVNHKPSNTKVDKKV[human IgG1 Fc with I253M Y436T (EU numbers) omitted here]
light: [about 200 residues omitted here]GGGGSGLNDIFEAQKIEWHE
B10: 3D8VH-G1m/hT4VL-KT0.Avi N315M (antibody, human IgG1, kappa)
heavy: EVQLVESGGGLVQPGGSLRLSCAASGYTFTSYVMHWVRQAPGKGLEWVSAINPYNDGNYYADSVKGRFTISRDNSRKTLYLQMNSLRAEDTAVYYCARGAYKRGYAMDYWGQGTTVTVSSASTKGPSVFPLAPSSKSTSGGTAALGCLVKDYFPEPVTVSWNSGALTSGVHTFPAVLQSSGLYSLSSVVTVPSSSLGTQTYICNVNHKPSNTKVDKKV[human IgG1 Fc with N315M (EU numbers) omitted here]
light: [about 200 residues omitted here]GGGGSGLNDIFEAQKIEWHE
B11: 3D8VH-G1m/hT4VL-KT0.Avi N315Q.Q438E (antibody, human IgG1, kappa)
heavy: EVQLVESGGGLVQPGGSLRLSCAASGYTFTSYVMHWVRQAPGKGLEWVSAINPYNDGNYYADSVKGRFTISRDNSRKTLYLQMNSLRAEDTAVYYCARGAYKRGYAMDYWGQGTTVTVSSASTKGPSVFPLAPSSKSTSGGTAALGCLVKDYFPEPVTVSWNSGALTSGVHTFPAVLQSSGLYSLSSVVTVPSSSLGTQTYICNVNHKPSNTKVDKKV[human IgG1 Fc with N315Q Q438E (EU numbers) omitted here]
light: [about 200 residues omitted here]GGGGSGLNDIFEAQKIEWHE
B12: 3D8VH-G1m/hT4VL-KT0.Avi N315Q (antibody, human IgG1, kappa)
heavy: EVQLVESGGGLVQPGGSLRLSCAASGYTFTSYVMHWVRQAPGKGLEWVSAINPYNDGNYYADSVKGRFTISRDNSRKTLYLQMNSLRAEDTAVYYCARGAYKRGYAMDYWGQGTTVTVSSASTKGPSVFPLAPSSKSTSGGTAALGCLVKDYFPEPVTVSWNSGALTSGVHTFPAVLQSSGLYSLSSVVTVPSSSLGTQTYICNVNHKPSNTKVDKKV[human IgG1 Fc with N315Q (EU numbers) omitted here]
light: [about 200 residues omitted here]GGGGSGLNDIFEAQKIEWHE
B13: 3D8VH-G1m/hT4VL-KT0.Avi I253Y.T437D (antibody, human IgG1, kappa)
heavy: EVQLVESGGGLVQPGGSLRLSCAASGYTFTSYVMHWVRQAPGKGLEWVSAINPYNDGNYYADSVKGRFTISRDNSRKTLYLQMNSLRAEDTAVYYCARGAYKRGYAMDYWGQGTTVTVSSASTKGPSVFPLAPSSKSTSGGTAALGCLVKDYFPEPVTVSWNSGALTSGVHTFPAVLQSSGLYSLSSVVTVPSSSLGTQTYICNVNHKPSNTKVDKKV[human IgG1 Fc with I253Y T437D (EU numbers) omitted here]
light: [about 200 residues omitted here]GGGGSGLNDIFEAQKIEWHE
B14: 3D8VH-G1m/hT4VL-KT0.Avi L314K (antibody, human IgG1, kappa)
heavy: EVQLVESGGGLVQPGGSLRLSCAASGYTFTSYVMHWVRQAPGKGLEWVSAINPYNDGNYYADSVKGRFTISRDNSRKTLYLQMNSLRAEDTAVYYCARGAYKRGYAMDYWGQGTTVTVSSASTKGPSVFPLAPSSKSTSGGTAALGCLVKDYFPEPVTVSWNSGALTSGVHTFPAVLQSSGLYSLSSVVTVPSSSLGTQTYICNVNHKPSNTKVDKKV[human IgG1 Fc with L314K (EU numbers) omitted here]
light: [about 200 residues omitted here]GGGGSGLNDIFEAQKIEWHE

Molecular target: T1, human TRIM21 PRYSPRY domain with …
Assay: SPR, Ab captured on Protein L, hTRIM21 12.5-200 nM

Kd [nM]	koff [s⁻¹]	kon [M⁻¹ s⁻¹]	Binder
2.85	0.00806	2.83e+06	B1
5.2	0.00745	1.43e+06	B2
2.71	0.00787	2.9e+06	B3
0.791	0.00219	2.76e+06	B4
3.28	0.00639	1.95e+06	B5
3.58	0.00599	1.67e+06	B6
4.27	0.00426	997000	B7
	0.00288	123000	B8
1.42	0.00155	1.1e+06	B9
14.1	0.0294	2.09e+06	B10
2.74	0.00801	2.93e+06	B11
13.4	0.0273	2.03e+06	B12
0.889	0.00212	2.39e+06	B13
23.3	0.00354	152000	B14
